From the supplement of paper PMC3334620
Over roughly 33,000 sequences, “E-score (-0.5 to 0.5)” has its median near -0.012; the highest 2% begin near 0.27. The list shows a part of the results.

These sequences were tested against T1, Vhr1 (UniProt P40522) (assay: PBM E-score (8-mer binding enrichment) (E-score (-0.5 to 0.5)); higher = stronger / more preferred TF binding; most listed sequences are background and not binding sites). Conditions: protein concentration: 200 nM; construct: GST-full length.
T1 sequence: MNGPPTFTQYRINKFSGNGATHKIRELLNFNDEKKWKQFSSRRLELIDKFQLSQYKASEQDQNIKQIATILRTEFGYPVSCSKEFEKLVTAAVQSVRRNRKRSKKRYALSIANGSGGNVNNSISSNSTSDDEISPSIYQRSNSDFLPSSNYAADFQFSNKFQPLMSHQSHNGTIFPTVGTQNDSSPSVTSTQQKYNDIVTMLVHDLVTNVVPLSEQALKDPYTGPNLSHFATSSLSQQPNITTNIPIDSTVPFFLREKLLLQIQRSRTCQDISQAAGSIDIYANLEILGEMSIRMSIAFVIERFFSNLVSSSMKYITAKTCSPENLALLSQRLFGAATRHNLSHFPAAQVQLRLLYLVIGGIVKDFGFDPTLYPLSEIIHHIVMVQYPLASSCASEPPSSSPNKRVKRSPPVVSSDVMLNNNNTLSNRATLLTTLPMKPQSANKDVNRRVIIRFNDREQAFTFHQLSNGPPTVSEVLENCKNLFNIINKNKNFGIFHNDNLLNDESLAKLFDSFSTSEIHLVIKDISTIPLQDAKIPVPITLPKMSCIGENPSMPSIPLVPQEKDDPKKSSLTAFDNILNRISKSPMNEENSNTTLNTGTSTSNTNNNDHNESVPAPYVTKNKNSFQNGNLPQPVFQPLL
In short: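 The E-score, a modified Wilcoxon-Mann-Whitney statistic, was computed by the Universal PBM Analysis Suite for every ungapped eight-base word pooled with its reverse complement. Scans behind it were normalised with masliner after bound GST-tagged yeast transcription factors were detected with fluorescent anti-GST. The proteins, at about 100-200 nM, had been applied to universal all-10-mer Agilent arrays made double-stranded by primer extension.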

Sequence	PBM E-score
CGTAAACC	-0.174
CGTCAAGA	-0.159
TAGACCTA	-0.114
CTTCTTTC	-0.263
GCGCGAGA	-0.0412
GCTTAAGC	-0.176
CTCGGATA	0.129
GATACACC	0.197
AGGCCGGA	-0.111
ACGAACGT	-0.00894
CATAGACG	0.0555
GAAGTCTC	-0.253
CGGAAACA	-0.174
CGAGGGCC	0.0875
AAAGGAGG	-0.319
CAATAATC	0.101
ATGATCAT	0.253
CCCATTTA	-0.115
CACAAGCC	0.0572
CGACGATC	0.058
AACAGTGT	0.0657
CGCGACAA	0.113
AGCCACAT	0.22
TAATATTA	0.185
CCTCTCGC	-0.154

Sequence	PBM E-score
ATCGCAAT	0.157
CCACATAA	0.108
CGGCGCAA	0.193
ACGTCACT	0.0346
CTCACTTC	-0.174
GATTTGGC	0.051
ATGCCCGA	-0.0291
AGCATAGA	-0.148
AAATCTCA	-0.0456
TGACCGCA	0.0423
CAGAATAC	0.00767
CTCGAAGA	-0.00973
ATCTAGAC	0.0811
GTCTGAGA	-0.122
GACTTCCA	0.0249
CATCTCAA	-0.109
AGCAAATC	0.109
GGAGAGGA	-0.166
AGGGTCAC	-0.0656
CCAATCCG	0.122
GAGGGTTA	-0.0982
TAAATGTA	-0.0311
CCCCGCAC	0.0391
AATGTAAC	-0.0159
CAGATACG	0.0421

Sequence	PBM E-score
AAACGCCT	-0.21
AGATATGA	0.161
CCACGTCA	-0.165
GATCGTGA	-0.068
AGATGTTA	-0.11
TGAATTCA	0.239
AAAAAGTT	-0.131
GGACATCA	-0.0918
CGAGTGAA	-0.0318
GAAATGTA	-0.0556
CGTCTGCA	-0.0976
CGCTCAGC	-0.0369
GAGGGTCC	-0.139
AACTCATG	0.254
AATTGCAG	-0.113
ACGGCACG	-0.0298
CGTATGTA	0.091
TACTCACA	0.285
CGTCGTAG	-0.00749
CGAGCGAA	-0.0708
TTGCCCAA	-0.237
GTCGAGAC	0.111
CCTTGACC	-0.111
GGCGAGAA	-0.0462
AGTCCGTG	-0.0538

Sequence	PBM E-score
CTGAACTA	-0.154
CCTACCTA	-0.0935
AAAGCCGA	-0.118
CAGAGCCC	-0.158
CCGTGGGA	-0.144
CATGATCC	0.213
GCGCCGAA	0.12
ACCCAGCC	-0.00027
GGCGGTCA	-0.156
TAGTTAAA	0.0419
CATTCTCG	-0.0764
CCATGGGC	0.221
GCCGACCC	-0.199
ACTGTTGC	0.0704
GAGTCAAA	0.312
AGCTAAGA	-0.0284
ACGTCATC	-0.199
CGCCCATA	0.124
TAGTCAGA	0.258
GCCGTGTA	-0.0705
ATTGATAC	0.198
CACATAAA	-0.0385
GGTGTGAC	0.189
CAACACTC	0.0881
ACGACCAG	0.0585

Sequence	PBM E-score
TGTATTAA	0.189
ACCTCTAA	-0.202
AGGCTGGG	-0.184
CGATATTC	-0.073
AATACATG	0.169
ACGCGCGC	0.107
AAACCCCA	-0.078
CTATCAGA	0.119
CTGTGGTC	0.123
AGCATTAA	0.0645
GCAAGAGA	-0.162
GGCGGTTA	0.157
GCTCGTAC	0.124
ACCGATTC	-0.0343
GAATCATC	0.437
CATCTGAA	0.0775
AGTCAGGC	0.404
CGTCGTCA	0.0838
TCGAACCA	0.00961
CTGTGATA	0.07
ATCCGAAT	0.261
ATAGACTG	0.0961
CGAAACTC	-0.163
CCGGAACG	-0.0334
AAGGATCT	-0.118

Sequence	PBM E-score
AGCAGGAA	-0.181
AAAGACTC	0.0621
ATATTAGA	-0.139
GTGTTAAA	-0.204
CCATGCCG	0.0436
GGCAGGTA	-0.122
CCAAGGTA	0.0816
ACCGGCTA	-0.036
GGAAGCGA	-0.0821
GCTTGACC	-0.13
AAGGATAA	-0.0506
AAAGGAGA	-0.0289
AGAAACGC	-0.0578
ATGTCCGG	-0.174
GTCTTCCA	-0.117
ACATAATG	0.168
ATAATTAC	-0.0317
ACGATAAT	0.0207
ATCCGCAG	0.128
CGCTATAG	-0.233
GCACGTAA	-0.134
GTAGTAAA	-0.0957
ACAACTAC	0.185
GTCTTCAC	-0.058
GGGGCCTA	-0.204

Sequence	PBM E-score
CTATCAAG	0.0277
AGATATAC	0.0373
AATGGAGG	-0.0309
ACAGGAGG	-0.164
GCGACGGA	-0.0218
ATAGAGCC	-0.122
AAGGACAG	-0.0727
GTTAGGTA	0.0774
ATATCGTA	0.183
CTGCGAAC	-0.0741
CCAAATCA	0.166
GGACGTAA	-0.241
GGGAACTA	-0.0154
CACGGAGC	0.016
GCATACCA	0.0583
ACCCCCGA	0.00996
ACCCATGA	0.287
ACGGATGC	-0.0748
TGGATCAA	0.0735
ATAGACCC	-0.0379
CAGTCGAC	0.197
AGTCTGTA	-0.0759
GGCTCCAA	-0.157
AGAGTGGC	-0.15
GATGAAGA	-0.106

Sequence	PBM E-score
GAGCCCGC	0.157
ATCGCATC	0.109
ATAACGCA	-0.0139
GTAGGTAA	-0.114
TAACCACA	0.194
CATCGCTA	0.157
TGTAAACA	0.0594
CCGGAAAG	-0.27
GGCTAACC	-0.118
GCTCGTCA	0.0737
AAACTAAA	-0.0946
ACAGCTAC	-0.0319
CTAATGTA	-0.0533
GAAGAAAC	-0.129
CTCTGACC	-0.0317
CTTCTGTC	-0.278
ACATGTAC	0.107
CGCATTTC	0.0975
CGGGAAAG	-0.0324
ACGGTCAT	0.156
GAAGTGTA	-0.125
CCTCCGTC	-0.111
AATACTAC	0.0494
AGTAGACG	0.0506
ACGCTATC	-0.104

Sequence	PBM E-score
CGTGTAAG	0.133
TATGACCA	0.0633
GATTCCAA	0.208
GCGTGCCA	-0.286
ATACTATC	0.128
CCCAGGAC	-0.00921
GTGCGGTA	0.121
CCAGCAGG	0.00639
CTTACTCA	0.176
AGCTCAAT	-0.0968
AGTAGAGC	-0.121
AGGTTGAG	-0.0428
TGTCCGAA	-0.0223
ATAATGAC	0.136
CTGCGCCA	0.115
AACTTCGC	-0.229
ACAGGAGC	-0.0567
AACCTCTA	-0.158
CTGTTTTC	-0.183
